Over roughly 33,000 sequences, “E-score (-0.5 to 0.5)” has its median near -0.043; the highest 2% begin near 0.37. This is one part of the list.

The assay deals with T1, Upc2 (UniProt Q12151).
T1 sequence: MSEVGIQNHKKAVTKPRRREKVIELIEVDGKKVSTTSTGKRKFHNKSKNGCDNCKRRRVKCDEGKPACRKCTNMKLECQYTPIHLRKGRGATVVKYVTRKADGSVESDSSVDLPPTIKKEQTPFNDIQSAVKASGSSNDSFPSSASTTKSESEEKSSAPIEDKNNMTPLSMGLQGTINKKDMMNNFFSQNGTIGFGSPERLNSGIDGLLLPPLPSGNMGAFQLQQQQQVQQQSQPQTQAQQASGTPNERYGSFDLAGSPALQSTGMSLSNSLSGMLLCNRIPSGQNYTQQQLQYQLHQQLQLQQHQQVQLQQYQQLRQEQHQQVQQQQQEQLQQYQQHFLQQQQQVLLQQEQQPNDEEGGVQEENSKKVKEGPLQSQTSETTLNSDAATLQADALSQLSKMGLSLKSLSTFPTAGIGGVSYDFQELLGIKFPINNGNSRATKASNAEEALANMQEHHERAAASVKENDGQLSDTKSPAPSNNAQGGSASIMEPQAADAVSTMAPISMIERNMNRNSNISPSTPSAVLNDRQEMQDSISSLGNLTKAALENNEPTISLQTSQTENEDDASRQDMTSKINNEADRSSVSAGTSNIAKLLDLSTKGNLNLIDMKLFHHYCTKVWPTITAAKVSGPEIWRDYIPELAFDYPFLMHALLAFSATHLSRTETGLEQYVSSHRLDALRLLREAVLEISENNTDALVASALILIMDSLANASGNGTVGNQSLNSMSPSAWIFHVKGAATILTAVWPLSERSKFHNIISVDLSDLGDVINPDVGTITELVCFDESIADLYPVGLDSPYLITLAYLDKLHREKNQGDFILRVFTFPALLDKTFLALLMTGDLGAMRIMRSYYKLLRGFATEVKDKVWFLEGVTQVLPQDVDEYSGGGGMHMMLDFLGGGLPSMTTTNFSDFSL
As to the kind of experiment: PBM E-score (8-mer binding enrichment) (E-score (-0.5 to 0.5)); higher = stronger / more preferred TF binding; most listed sequences are background and not binding sites. To be noted: protein concentration: 200 nM; construct: GST-full length. The procedure:
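Universal 'all 10-mer' protein binding microarrays (Agilent AMADID 015681) probed with GST-tagged S. cerevisiae TFs (full-length or DBD) made by in vitro transcription/translation (PURExpress), about 100-200 nM. Bound TF was detected with fluorescent anti-GST. Each ungapped 8-mer (which stands for itself and its reverse complement) is scored by the PBM enrichment score (E-score), a modified Wilcoxon-Mann-Whitney statistic from -0.5 to +0.5, computed with the Universal PBM Analysis Suite. Scale: above 0.35 generally sequence-specific binding.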
Turning to CGGCTTTA, the “PBM E-score” value worked out at 0.0235.
To GCCCCGCA belongs -0.172; to ACTTAGCT, -0.201.
Next, ATCTGTAA: -0.0759.
For AACTAACG, the “PBM E-score” value stood at 0.16.
To ACCTGTCT belongs -0.167.
On to CACGTTCC, for which the “PBM E-score” value is -0.00138.
To ACCGGTTC belongs -0.171; to CATCTAGC, -0.177.
For the sequence ATGAAGCG, the “PBM E-score” value was -0.171.
Regarding CGCGACGA, the “PBM E-score” value was 0.148.
Take CAAGCTAG: the “PBM E-score” value was -0.141.
In the case of CAAACACA, the “PBM E-score” value came to 0.0073.
To AGGTCGCC belongs -0.293.
Next, AGAGTAGA: -0.0212; CGAAAATA: 0.0911.
To GAGAGTTA belongs -0.0745; to ATCTCTTC, -0.0581; to ACTCGCGC, 0.0983.
Regarding AGATCAGC, the “PBM E-score” value was -0.135.
As for CCATTACC, the “PBM E-score” value was -0.118.
Next, AAACTTAT: 0.09.
To AGGCAAGA belongs -0.111; to TGGGTCAA, -0.19.
Next, CTTTATTA: -0.07; CGACGACG: 0.0684.
For the sequence CATCCGCA, the “PBM E-score” value is -0.0238.
To GTTGATGA belongs -0.142.
To TATATAAA belongs 0.169; to ACCTCACC, -0.104; to CATTCTCA, 0.046.
Regarding ACTCATGA, the “PBM E-score” value was -0.0777.
Turning to CACGGCCG, the “PBM E-score” value was -0.0589.
Next, GATTTTGA: 0.0303.
Next, AATTTATG: 0.143; AGGACGAC: -0.2.
To CATACGCA belongs 0.313; to TATAATAA, 0.105; to AGACCTTA, -0.0891.
For the sequence AGATTACG, the “PBM E-score” value amounted to 0.155.
To TTTCCAAA belongs -0.0113; to CCAATGGG, -0.407.
On to CAAGTCCG, for which the “PBM E-score” value was 0.0112.
With AAATATGT, the “PBM E-score” value worked out at 0.116.
To AAAATACT belongs -0.132; to AGGTCTAA, -0.0418.
Next, ACATGCCC: -0.0565; CCCGTAGA: -0.00639; ACCACGGT: -0.298.
To ACAATCGC belongs 0.177; to GTCAGCGA, -0.157.
Turning to AATCAGGG, the “PBM E-score” value was -0.35.
For ACGGGACG, the “PBM E-score” value is 0.0961.
On to GCACCCCA, for which the “PBM E-score” value is -0.0725.
Next, ATGAATTG: -0.0517; ATATTCAG: -0.0198; CCCACCAG: 0.0436.
To ATGAGTCA belongs -0.165; to GTGTTGGA, -0.112; to CACCTTAA, -0.0239.
Next, CGGGTCAA: -0.0579; CATCGTAC: 0.454; GTCGACAC: 0.224.
As for TACGTAAA, the “PBM E-score” value stood at 0.35.
For the sequence AATTATGG, the “PBM E-score” value is -0.136.
Turning to TGGTCAAA, the “PBM E-score” value was -0.00066.
On to CCAGCCCC, for which the “PBM E-score” value is -0.129.
Consider TGTGAACA, for which the “PBM E-score” value came to 0.0443.
As for AACTAAGG, the “PBM E-score” value was 0.0134.
Consider GGCTTTGA, for which the “PBM E-score” value is -0.0097.
For the sequence CGACCCTC, the “PBM E-score” value was 0.0606.
AAGGCGTG: the “PBM E-score” value turned out to be 0.0225.
Next, GACGCCCA: -0.0905.
Next, AGGCGAAC: 0.037; GAGAAGCA: -0.14; CTAATAAA: 0.0178.
To AGGCCAAT belongs 0.0145; to CCGTTAGG, -0.0576.
As for AGCTAACA, the “PBM E-score” value was -0.196.
For the sequence CAATAGAC, the “PBM E-score” value is -0.215.
ATCCCTAC: the “PBM E-score” value worked out at 0.0336.
For GAGAGGGA, the “PBM E-score” value is -0.272.
To ACATCCCA belongs -0.15; to AAAGTTGC, -0.109; to TACCGTCA, 0.0559.
On to TAGCTCAA, for which the “PBM E-score” value is -0.194.
